Measurements from patent US9650358B2 (priority 2013, dated 2017).

system: H929 cells; test: cells; details: Homo sapiens, NCI-H929, 24 h, read-out: H929 viability EC50

SMILES	EC50 [µM]
NC(=O)C1(C(=O)Nc2cc(-c3ccc4ncn(Cc5cccc(F)c5)c4c3)c(Cl)cn2)CC1 [Example 207, N-{5-chloro-4-[1-(3-fluorobenzyl)-1H-benzimidazol-6-yl]pyridin-2-yl}cyclopropane-1,1-dicarboxamide]	1.1
Cn1nnc2cc(CN3CCc4ccc(-c5cc(NC(=O)C6CCCNC6)ncc5Cl)cc43)ccc21 (stereo not shown) [Example 164, N-(5-chloro-4-{1-[(1-methyl-1H-benzotriazol-5-yl)methyl]-2,3-dihydro-1H-indol-6-yl}pyridin-2-yl)piperidine-3-carboxamide]	1.5
O=C(Nc1cc(-c2ccc3ncn(CC4CCOCC4)c3c2)ccn1)[C@@H]1CCCNC1 [Example 316, (3R)—N-{4-[1-(tetrahydro-2H-pyran-4-ylmethyl)-1H-benzimidazol-6-yl]pyridin-2-yl}piperidine-3-carboxamide]	0.47
Cn1cnc2ccc(-c3cc(NC(=O)[C@@H]4CCCNC4)ncc3Cl)cc21 [Example 3, (3R)—N-[5-chloro-4-(1-methyl-1H-benzimidazol-6-yl)pyridin-2-yl]piperidine-3-carboxamide]	3
CN(C)CCCCNc1cc(-c2ccc3ncn(Cc4cccc(F)c4)c3c2)c(Cl)cn1 [Example 55, N′-{5-chloro-4-[1-(3-fluorobenzyl)-1H-benzimidazol-6-yl]pyridin-2-yl}-N,N-dimethylbutane-1,4-diamine]	0.86
Fc1cccc(Cn2cnc3ccc(-c4cc(NCCC5CCN5)ncc4Cl)cc32)c1 (stereo not shown) [Example 100, N-[2-(azetidin-2-yl)ethyl]-5-chloro-4-[1-(3-fluorobenzyl)-1H-benzimidazol-6-yl]pyridin-2-amine]	5
CS(=O)(=O)c1ccc(CN2CCc3ccc(-c4cc(NC(=O)C5CCCNC5)ncc4Cl)cc32)cc1F (stereo not shown) [Example 172, N-(5-chloro-4-{1-[3-fluoro-4-(methylsulfonyl)benzyl]-2,3-dihydro-1H-indol-6-yl}pyridin-2-yl)piperidine-3-carboxamide]	1.1
COCC(COC)N[C@H]1CC[C@H](Nc2cc(-c3ccc4ncn(Cc5cccc(F)c5)c4c3)c(Cl)cn2)CC1 [Example 238, trans-N-{5-chloro-4-[1-(3-fluorobenzyl)-1H-benzimidazol-6-yl]pyridin-2-yl}-N-(1,3-dimethoxypropan-2-yl)cyclohexane-1,4-diamine]	0.11
CNC(=O)N1C[C@H]2CC(C(=O)Nc3cc(-c4ccc5ncn(CC6CCOCC6)c5c4)c(Cl)cn3)C[C@H]2C1 (stereo partly drawn) [Example 338, (3aR,6aS)—N^5-{5-chloro-4-[1-(tetrahydro-2H-pyran-4-ylmethyl)-1H-benzimidazol-6-yl]pyridin-2-yl}-N^2-methylhexahydrocyclopenta[c]pyrrole-2,5(1H)-dicarboxamide]	0.2
O=C(Nc1cc(-c2ccc3nnn(Cc4cccc(F)c4)c3c2)c(Cl)cn1)[C@@H]1CCCNC1 [Example 110, (3R)—N-{5-chloro-4-[1-(3-fluorobenzyl)-1H-benzotriazol-6-yl]pyridin-2-yl}piperidine-3-carboxamide]	0.46
Cc1nc2ccc(-c3cc(NC(=O)[C@@H]4CCCNC4)ncc3Cl)cc2n1Cc1cccc(F)c1 [Example 142, (3R)—N-{5-chloro-4-[1-(3-fluorobenzyl)-2-methyl-1H-benzimidazol-6-yl]pyridin-2-yl}piperidine-3-carboxamide]	0.44
O=C(O)c1ccc(Cn2cnc3ccc(-c4cc(NC(=O)[C@@H]5CCCNC5)ncc4Cl)cc32)cc1 [Example 320, 4-{[6-(5-chloro-2-{[(3R)-piperidin-3-ylcarbonyl]amino}pyridin-4-yl)-1H-benzimidazol-1-yl]methyl}benzoic acid]	> 10
O=C(Nc1cc(-c2cnc3ncn(Cc4cccc(F)c4)c3c2)c(Cl)cn1)C1CCCNC1 (stereo not shown) [Example 176, N-{5-chloro-4-[1-(3-fluorobenzyl)-1H-imidazo[4,5-b]pyridin-6-yl]pyridin-2-yl}piperidine-3-carboxamide]	0.22
O=C(Nc1cc(-c2ccc3c(c2)N(CC2CCOCC2)CC3)c(Cl)cn1)[C@@H]1CCCNC1 [Example 4, (3R)—N-{5-chloro-4-[1-(tetrahydro-2H-pyran-4-ylmethyl)-2,3-dihydro-1H-indol-6-yl]pyridin-2-yl}piperidine-3-carboxamide]	2.7
NS(=O)(=O)c1ccc(CN2CCc3ccc(-c4cc(NC(=O)C5CCCNC5)ncc4Cl)cc32)cc1 (stereo not shown) [Example 171, N-{5-chloro-4-[1-(4-sulfamoylbenzyl)-2,3-dihydro-1H-indol-6-yl]pyridin-2-yl}piperidine-3-carboxamide]	3.6
O=C(Nc1cc(-c2ccc3nnn(Cc4ccc(F)cc4)c3c2)c(Cl)cn1)[C@@H]1CCCNC1 [Example 113, (3R)—N-{5-chloro-4-[1-(4-fluorobenzyl)-1H-benzotriazol-6-yl]pyridin-2-yl}piperidine-3-carboxamide]	0.44
CS(=O)(=O)Nc1ccc(CN2CCc3ccc(-c4cc(NC(=O)C5CCCNC5)ncc4Cl)cc32)cc1 (stereo not shown) [Example 149, N-[5-chloro-4-(1-{4-[(methylsulfonyl)amino]benzyl}-2,3-dihydro-1H-indol-6-yl)pyridin-2-yl]piperidine-3-carboxamide]	5.7

SMILES	EC50 [µM]
C[C@H](c1cccc(F)c1)n1nnc2cc(F)c(-c3cc(NC(=O)[C@@H]4CCCNC4)ncc3Cl)cc21 [Example 309, (3R)—N-(5-chloro-4-{5-fluoro-1-[(1R)-1-(3-fluorophenyl)ethyl]-1H-benzotriazol-6-yl}pyridin-2-yl)piperidine-3-carboxamide]	0.97
O=C(Nc1cc(-c2ccc3ncn(Cc4cccc(F)c4)c3c2)c(Cl)cn1)c1cnc2c(c1)OCCO2 [Example 187, N-{5-chloro-4-[1-(3-fluorobenzyl)-1H-benzimidazol-6-yl]pyridin-2-yl}-2,3-dihydro[1,4]dioxino[2,3-b]pyridine-7-carboxamide]	0.14
NS(=O)(=O)CCn1cnc2ccc(-c3cc(NC(=O)[C@@H]4CCCNC4)ncc3Cl)cc21 [Example 19, (3R)—N-{5-chloro-4-[1-(2-sulfamoylethyl)-1H-benzimidazol-6-yl]pyridin-2-yl}piperidine-3-carboxamide]	1.45
O=C(/C=C/c1ccncc1)Nc1cc(-c2ccc3ncn(Cc4cccc(F)c4)c3c2)c(Cl)cn1 [Example 181, (2E)-N-{5-chloro-4-[1-(3-fluorobenzyl)-1H-benzimidazol-6-yl]pyridin-2-yl}-3-(pyridin-4-yl)prop-2-enamide]	0.4
Fc1cccc(Cn2cnc3ccc(-c4cc(NCCC5CCCN5)ncc4Cl)cc32)c1 (stereo not shown) [Example 102, 5-chloro-4-[1-(3-fluorobenzyl)-1H-benzimidazol-6-yl]-N-[2-(pyrrolidin-2-yl)ethyl]pyridin-2-amine]	3.1
O=C(Nc1cc(-c2ccc3nnn(CC4CCOCC4)c3c2)c(Cl)cn1)[C@@H]1CCCNC1 [Example 248, (3R)—N-{5-chloro-4-[1-(tetrahydro-2H-pyran-4-ylmethyl)-1H-benzotriazol-6-yl]pyridin-2-yl}piperidine-3-carboxamide]	2.1
CC(C)(C)OC(=O)N1C[C@H]2CC(C(=O)Nc3cc(-c4ccc5ncn(CC6CCOCC6)c5c4)c(Cl)cn3)C[C@H]2C1 (stereo partly drawn) [Example 337, tert-butyl (3aR,6aS)-5-({5-chloro-4-[1-(tetrahydro-2H-pyran-4-ylmethyl)-1H-benzimidazol-6-yl]pyridin-2-yl}carbamoyl)hexahydrocyclopenta[c]pyrrole-2(1H)-carboxylate]	0.17
O=C(Nc1cc(-c2ccc3c(c2)N(Cc2cnccn2)CC3)c(Cl)cn1)C1CCCNC1 (stereo not shown) [Example 168, N-{5-chloro-4-[1-(pyrazin-2-ylmethyl)-2,3-dihydro-1H-indol-6-yl]pyridin-2-yl}piperidine-3-carboxamide]	3.2
Fc1cccc(Cn2cnc3ccc(-c4cc(NCCC5CCCNC5)ncc4Cl)cc32)c1 (stereo not shown) [Example 96, 5-chloro-4-[1-(3-fluorobenzyl)-1H-benzimidazol-6-yl]-N-[2-(piperidin-3-yl)ethyl]pyridin-2-amine]	0.42
O=C(CC1CCNCC1)Nc1cc(-c2ccc3ncn(Cc4cccc(F)c4)c3c2)c(Cl)cn1 [Example 129, N-{5-chloro-4-[1-(3-fluorobenzyl)-1H-benzimidazol-6-yl]pyridin-2-yl}-2-(piperidin-4-yl)acetamide]	0.97
NC1CCCC(Nc2cc(-c3ccc4ncn(Cc5cccc(F)c5)c4c3)c(Cl)cn2)C1 (stereo not shown) [Example 250, N-{5-chloro-4-[1-(3-fluorobenzyl)-1H-benzimidazol-6-yl]pyridin-2-yl}cyclohexane-1,3-diamine]	0.72
O=C(Nc1cc(-c2ccc3ncn(CC4CCOCC4)c3c2)c(Cl)cn1)C1CC2(CNC2)C1 [Example 268, N-{5-chloro-4-[1-(tetrahydro-2H-pyran-4-ylmethyl)-1H-benzimidazol-6-yl]pyridin-2-yl}-2-azaspiro[3.3]heptane-6-carboxamide]	0.68
CC(C)(CN)CNc1cc(-c2ccc3ncn(Cc4cccc(F)c4)c3c2)c(Cl)cn1 [Example 76, N-{5-chloro-4-[1-(3-fluorobenzyl)-1H-benzimidazol-6-yl]pyridin-2-yl}-2,2-dimethylpropane-1,3-diamine]	1.6
O=C(Nc1cc(-c2ccc3c(c2)N(Cc2cncnc2)CC3)c(Cl)cn1)C1CCCNC1 (stereo not shown) [Example 158, N-{5-chloro-4-[1-(pyrimidin-5-ylmethyl)-2,3-dihydro-1H-indol-6-yl]pyridin-2-yl}piperidine-3-carboxamide]	1.8
O=C(Nc1cc(-c2ccc3ncn(Cc4cccc(F)c4)c3c2)c(Cl)cn1)C1CC(=O)N(Cc2ccccc2)C1 (stereo not shown) [Example 186, 1-benzyl-N-{5-chloro-4-[1-(3-fluorobenzyl)-1H-benzimidazol-6-yl]pyridin-2-yl}-5-oxopyrrolidine-3-carboxamide]	0.22
Cn1cc(N2CCCC(Nc3cc(-c4ccc5ncn(Cc6cccc(F)c6)c5c4)c(Cl)cn3)C2)cn1 (stereo not shown) [Example 39, 5-chloro-4-[1-(3-fluorobenzyl)-1H-benzimidazol-6-yl]-N-[1-(1-methyl-1H-pyrazol-4-yl)piperidin-3-yl]pyridin-2-amine]	0.75
O=C1CC(C(=O)Nc2cc(-c3ccc4ncn(CC5CCOCC5)c4c3)c(Cl)cn2)C1 [Example 270, N-{5-chloro-4-[1-(tetrahydro-2H-pyran-4-ylmethyl)-1H-benzimidazol-6-yl]pyridin-2-yl}-3-oxocyclobutanecarboxamide]	0.59
